Paper PMC6919601, “Identification of Plasmodium dipeptidyl aminopeptidase allosteric inhibitors by high throughput screening” (PLoS ONE, 2019)
Several values for one entry are separate records, joined by “and”; a condition that tells them apart may be missing. Identical values can stand only once. In all, about 110,000 compounds went through this assay and about 230 (0.21%) showed an effect of 50% or more. The list shows a part of the results.

Target: DPAP1 (Plasmodium falciparum, UniProt Q8IIJ9)
Sequence (Q8IIJ9 whole entry, looked up): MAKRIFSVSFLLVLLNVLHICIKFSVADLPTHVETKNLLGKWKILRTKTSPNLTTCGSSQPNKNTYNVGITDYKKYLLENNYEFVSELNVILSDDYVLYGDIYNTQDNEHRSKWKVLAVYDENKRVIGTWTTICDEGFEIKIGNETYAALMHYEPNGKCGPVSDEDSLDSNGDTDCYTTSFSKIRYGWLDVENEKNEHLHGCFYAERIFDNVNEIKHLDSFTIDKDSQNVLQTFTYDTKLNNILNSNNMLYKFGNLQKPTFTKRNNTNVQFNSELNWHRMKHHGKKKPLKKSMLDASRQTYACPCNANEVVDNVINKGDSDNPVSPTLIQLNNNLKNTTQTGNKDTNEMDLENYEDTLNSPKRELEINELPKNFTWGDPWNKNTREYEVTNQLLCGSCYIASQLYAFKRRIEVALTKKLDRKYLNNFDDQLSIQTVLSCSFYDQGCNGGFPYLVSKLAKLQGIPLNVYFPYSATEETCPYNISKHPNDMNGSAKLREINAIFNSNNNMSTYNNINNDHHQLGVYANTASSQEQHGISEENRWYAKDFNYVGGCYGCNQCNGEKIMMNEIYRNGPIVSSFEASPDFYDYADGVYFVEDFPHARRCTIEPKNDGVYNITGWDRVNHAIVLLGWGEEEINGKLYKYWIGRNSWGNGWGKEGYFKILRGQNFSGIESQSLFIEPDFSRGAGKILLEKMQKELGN
Assay: primary screen, percent inhibition; read by cleavage of a fluorogenic dipeptide substrate; higher = more effect of the substance
Design: species or system P. falciparum D10 trophozoite lysates; single well
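Note: 30 min substrate incubation versus DMSO and 10 µM JCP410 controls.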

| Structure (SMILES) | % Inhibition @ 10 uM |
| --- | --- |
| COc1ccc(N2CCN(Cc3cc(OC)ccc3OC)CC2)cc1 | 0.605% |
| CCOc1ccc(-c2csc(NC(=O)CCCOc3ccc(Cl)cc3)n2)cc1 | -1.25% |
| COc1cccc(C2C3=C(O)CC(C)(C)CC3=NC(C)=C2C(=O)Nc2c(F)cccc2F)c1OC (stereo not drawn) | -4.67% |
| COc1cc(C)c2c(=O)c(Oc3ccccc3)c(C(F)(F)F)oc2c1 | -5.69% |
| COc1cc(OC)c(C2SCCCS2)cc1OC | -1.22% |
| CCOCCCNC(=O)Cn1nc(C)c2c(C)n(-c3ccccc3)nc2c1=O | -4% |
| CC(=O)Nc1nc2nc(C)c(Cl)c(O)n2n1 | 0.401% |
| O=C(CSc1cn(Cc2ccc(F)cc2)c2ccccc12)NCc1ccco1 | 3.8% |
| Brc1ccc(-c2cc(-c3ccccc3)nc(N3CCCC3)n2)cc1 | -7.7% |
| CCOC(=O)c1c(C=O)c(C)n(Cc2ccccc2)c1C | -3.53% |
| COc1ccc(C(=O)Nc2sc3c(c2C(=O)O)CC(C)(C)OC3)cc1OC | 1.61% |
| Cc1noc(C(=O)N2CC3(C)CC2CC(C)(C)C3)c1Cl (stereo not drawn) | -5.25% |
| CCn1c2ccccc2c2nnc(-n3nc(C)c(Cc4ccccc4)c3C)nc21 | 17.5% |
| NS(=O)(=O)c1ccc(CCNC(=O)NC23CC4CC(CC(C4)C2)C3)cc1 | -2.85% |
| O=C(CCN1C(=O)c2ccccc2S1(=O)=O)Nc1ccccc1C(=O)O | -11.5% |
| CCOC(=O)c1nnn(-c2nonc2N)c1CSc1nc2cc(OCC)ccc2[nH]1 | 1.62% |
| Cc1cc(C)c2c(n1)sc1c(=O)n(Cc3ccccc3)nnc12 | 4.13% |
| C=CCn1c2ccccc2n2c(C(=O)OCC)c(C)nc12 | -3.14% |
| O=C(NCCc1cccs1)c1cccc(Br)c1 | -0.222% |
| O=C(Nc1ccccc1Br)c1ccc(Cl)cc1 | -0.192% |
| CN1C2CCC1/C(=C\c1ccc(F)cc1)C(=O)/C2=C/c1ccc(F)cc1 | -2.95% |
| Cc1ccccc1C1Oc2ccccc2C2CC(c3ccccc3O)=NN21 (stereo not drawn) | -1.68% |
| O=C(C1CCC(Cn2c(=O)[nH]c3ccsc3c2=O)CC1)N1CC=C(c2ccccc2)CC1 (stereo not drawn) | -4.06% |
| CCCCCCNc1nc(-c2ccc(OC)cc2)c(CCC(=O)O)s1 | -0.671% |
| CN(Cc1ccccc1)S(=O)(=O)c1ccc(S(=O)(=O)N2CCN(CCC#N)CC2)cc1 | -1.82% |

| Structure (SMILES) | % Inhibition @ 10 uM |
| --- | --- |
| N=C(CC1CC(=O)NC(=O)C1)C1=C(O)CCCC1=O | -1.06% |
| Cn1c(C(=O)NCCc2ccccc2)cc2oc3ccccc3c21 | 3% |
| O=C(CN1CC(=O)N2CCCC2C1=O)NCc1ccc2c(c1)OCO2 (stereo not drawn) | -3.49% |
| O=C(C1=C(O)C(=O)N(CCc2c[nH]cn2)C1c1ccc(Cl)cc1)c1ccc(F)cc1 (stereo not drawn) | 4.31% |
| Cc1ccc(-c2nnc3n2N=C(c2ccc(O)c(O)c2)CS3)cc1 | -1.17% |
| Cc1ccc2nc(NC(=O)C3CCCN(S(=O)(=O)c4ccc5nc(O)ccc5c4)C3)sc2c1 (stereo not drawn) | 3.77% |
| O=[N+]([O-])c1ccc(CN2CCC(O)CC2)cc1 | -3.65% |
| Cc1ccc2oc(=O)c3cnn(CC(=O)Nc4cc(-c5cccc(Cl)c5)no4)c3c2c1 | -5.25% |
| Cc1nc2ccccc2c2oc(C(=O)NCCCN3CCN(Cc4ccccc4)CC3)cc12 | -0.0115% |
| O=C(Cn1c(=O)n(CCc2ccccc2)c(=O)c2sc3ccccc3c21)NCc1ccccc1 | -6.52% |
| COc1ccc(CCNC2=C(Cl)C(=O)N(CCc3ccc(OC)c(OC)c3)C2=O)cc1OC | 1.96% |
| CCOc1ccccc1C1C(C(=O)OC)=C(C)N=C2C1=C(O)c1ccccc12 (stereo not drawn) | -3.14% |
| COc1ccc(-c2cc(C(F)F)n3ncc(C(=O)N4CCN(C(=O)c5ccco5)CC4)c3n2)cc1 | 2.46% |
| CCN(CC)S(=O)(=O)c1ccc(-c2csc(Nc3ccc(C)cc3)n2)cc1 | -3.79% |
| CC1CC(C)CN(CCCn2cnc3c4cc(Cl)ccc4nc-3c2O)C1 (stereo not drawn) | -0.235% |
| CN(C)C(=O)Nc1ccc(Cl)c(Cl)c1 | -5.51% |
| COC(=O)c1cc(S(=O)(=O)NCc2cc(OC)c(OC)c(OC)c2)cn1C | 0.776% |
| CC(C)(C)C(=O)Nc1sc2c(c1C#N)CCCCC2 | 2.69% |
| CCOc1ccc(C(=O)N2CC(C)CC(C)C2)cc1 (stereo not drawn) | 0.823% |
| CCOC(=O)C1CCN(Cc2cc(OC)c(OC)c(OC)c2)CC1 | 4.67% |
| O=C1S/C(=C\c2cccnc2)C(=O)N1c1ccc(Cl)cc1 | 1.96% |
| CCOc1cc(/C=C2/NC(=O)N(Cc3ccc(F)cc3)C2=O)c(Br)cc1OC | 4.53% |
| CC1CCCCN1Cc1nc2c(c(=O)n(C)c(=O)n2C)n1Cc1ccc(F)cc1 (stereo not drawn) | -0.499% |
| COC(=O)C1=C(C)N(CCC2=CCCCC2)C(=O)/C1=C\c1ccccc1O | 3.54% |
| CN(C)CCCNC(=O)c1ccc(-c2nn(C)c(=O)c3ccccc23)cc1 | -3.23% |

| Structure (SMILES) | % Inhibition @ 10 uM |
| --- | --- |
| Cc1ccc(NC(=O)c2ccccc2OCC(=O)Nc2cccc(Cl)c2C)nc1 | 5.08% |
| CCN1CCN(C2CCC(c3ccccc3)CC2)CC1 (stereo not drawn) | 1.88% |
| CCOC(=O)c1sc(C)nc1C1CCN(C(=O)OCC)CC1 | -1.03% |
| CCCNC(=O)/C(=C/c1cn(S(=O)(=O)N(C)C)c2ccccc12)NC(=O)c1ccccc1 | -0.0235% |
| O=C1S/C(=C\c2ccco2)C(=O)N1c1cccc(Cl)c1 | -0.318% |
| CCOc1ccc(S(=O)(=O)Nc2ccccc2C(=O)NC2CCCCC2)cc1 | -0.884% |
| COc1ccc(CNC(=O)c2cc(-c3ccco3)on2)cc1 | 0.628% |
| CCOC(=O)c1c(NC(=O)/C(C#N)=C\c2ccccc2F)sc2c1CCCC2 | 3.95% |
| CCOc1ccc(NS(=O)(=O)c2ccc(NC(=O)Nc3ccccc3)cc2)cc1 | -7.17% |
| CC(=O)N/C(=C\c1ccccc1)C(=O)Nc1cc(C)ccc1C | -0.446% |
| COc1ccc(C=O)cc1Cn1c(C)cc(C)c(C#N)c1=O | -3.94% |
| C/C(CS(=O)(=O)c1ccc(Cl)cc1)=N/NC(N)=S | 1.12% |
| CCOC(=O)c1c(C)[nH]c(C)c1C(C)=O | 1.63% |
| Cc1cc(C)c(C(=O)/C=C/c2ccco2)c(O)n1 | -0.591% |
| Cc1sc(NC(=O)Cc2ccccc2)c(C(N)=O)c1C | 16.1% |
| O=C(O)CCCC(=O)Nc1ccc(Cl)cc1 | -1.38% |
| Cn1c(=O)c2ncn(CC(=O)Nc3ccccc3O)c2n(C)c1=O | 1.57% and 1.88% |
| Cc1ccc2c(CN3CCN(C(=O)c4ccco4)CC3)cc(=O)oc2c1 | 1.67% |
| CC(=O)Nc1cccc(NC(=O)CSc2nc(-c3cccs3)cc(-c3cccs3)c2C#N)c1 | 5.94% |
| CCOC(=O)C1=C(CN2CCN(C(=O)c3ccco3)CC2)NC(=O)NC1c1ccc(OC(C)C)cc1 (stereo not drawn) | -4.69% |
| CC(C)C1CC(CCN2CCCCC2)(c2ccccc2)CCO1 (stereo not drawn) | -1.85% |
| CCC(Nc1ccccc1N)=C1C(=O)N(C)C(=O)N(C)C1=O | -0.105% |
| CCOC(=O)CC1=CSC2=NCCN12 | 2% |
| N#Cc1c(N2C(=O)C3C4c5ccccc5C(c5ccccc54)C3C2=O)sc2c1CCCC2 (stereo not drawn) | -1.19% |
| CC(C)(C)NC(=O)CC(CC(=O)O)c1ccccc1 (stereo not drawn) | 4.08% |

| Structure (SMILES) | % Inhibition @ 10 uM |
| --- | --- |
| CC1CCCCN1C(=O)Cn1cc(C(=O)C(F)(F)F)c2ccccc21 (stereo not drawn) | 1.83% |
| CC1=CCC(COC(=O)CN2CCCCC2)CC1 (stereo not drawn) | 5.77% |
| COc1ccc(NC(=O)COc2ccc(C(=O)NC3CCCCC3)cc2)cc1 | -5.92% |
| COC(=O)c1cc2oc3ccccc3c2n1CC(=O)NCc1ccco1 | -7.02% |
| CC1CCC(C(=O)NC(Cc2c[nH]c3ccccc23)C(=O)NCc2cccnc2)CC1 (stereo not drawn) | -4.06% |
| Cc1[nH]c2ccccc2c1C(NS(=O)(=O)c1ccccc1)C(Cl)(Cl)Cl (stereo not drawn) | -0.597% |
| CCOC(=O)N1CCC(NCCc2ccc(Cl)cc2Cl)CC1 | -1.5% |
| CN1CCC(N(C)Cc2cccc(Br)c2)CC1 | 1.4% |
| Cc1cc(/C=C2/C(=N)N3C(=NC2=O)SN=C3S(C)(=O)=O)c(C)n1-c1cccc(C(F)(F)F)c1 | -1.58% |
| CCOCCCNC(=O)/C(=C/c1cccnc1)NC(=O)c1ccccc1 | 0.27% |
| COc1ccc(C(=O)c2sc3nc(C)c(C)c(C)c3c2N)cc1OC | 4.28% |
| CCc1ccc(-c2c(C)sc(NC(=O)c3ccnn3C)c2C#N)cc1 | 1.43% |
| Cc1ccc(CNCc2cccn2-c2c(C(=O)O)cnn2-c2ccccc2)cc1 | 7.75% |
| CC(=O)Nc1ccc(S(=O)(=O)n2ccnc2)cc1 | -4.43% |
| Nc1c(C(=O)Nc2nccs2)sc2nc(-c3cccs3)cc(C(F)(F)F)c12 | 76.8% |
| CC1(C)CC(=O)N(Cc2ccccc2)C(=O)C1 | -1.52% |
| Cc1cc2ccccc2n1-c1ccc(C(=O)N2CCCCCC2)s1 | 3.12% |
| CCOC(=O)C1=C(C)N=c2s/c(=C\c3cc(Cl)cc(Cl)c3O)c(=O)n2C1c1ccccc1Cl (stereo not drawn) | 43.8% |
| CCOc1ccc2nc3sc(C(=O)Nc4ccc(F)cc4)c(N)c3cc2c1 | 17.4% |
| O=C(COc1ccc2cc(Br)ccc2c1)N1N=C(C(F)F)CC1(O)C(F)F (stereo not drawn) | 1.57% |
| CC(=O)NCC1OCCc2ccccc21 (stereo not drawn) | -1.97% |
| CCCCNc1nc2c(-c3ccccc3)nnn2c2ccccc12 | -8.42% |
| COc1ccc(C(=O)OCC2CC(c3ccccc3)=NO2)cc1OC (stereo not drawn) | 1.91% |
| Cc1nc(C(=N)NOC(=O)Cc2ccccc2)no1 | 3.79% |
